Patent US20250163127A1 (published 2025)

Columns and labels:
human CD80 = biological target: T1, human CD80 (human); assay: cell-based or functional assay
T1 chain: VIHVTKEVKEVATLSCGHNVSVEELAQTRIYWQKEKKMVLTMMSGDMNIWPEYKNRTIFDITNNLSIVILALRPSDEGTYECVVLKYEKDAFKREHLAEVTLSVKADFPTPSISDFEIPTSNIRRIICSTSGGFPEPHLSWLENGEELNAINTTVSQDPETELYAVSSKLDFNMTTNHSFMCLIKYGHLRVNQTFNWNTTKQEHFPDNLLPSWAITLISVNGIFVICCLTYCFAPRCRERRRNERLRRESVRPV

PD-1 = PD-1 (human, UniProt Q15116); assay: cell-based or functional assay

% CD25 Hi FoxP3 + (human CD80): 30.3 % at 100 nM
% CD25 Hi FoxP3 + (PD-1): 30.3 % at 100 nM
B1: PD-L1 303-CTLA-4 2655-Fc (Fc fusion)
chain: FTVTVPKDLYVVEYGSNMTIECKFPVEKQLDLAALIVYWEMEGKDIIQFVHGEEDQKAQHSSYRQRARLLKDQLSLGNAALQITDVKLQDAGVYRCMISYGGGADYKRITVKVNAGSGGSGGGGSGGGG[about 120 residues left out here][about 250 residues left out here]
